From EPA's CvTdb concentration-time database
The source gives many values for each of these; only a part stands here.

Key:
Rat [1] = test: concentration in plasma after dosing; conditions: 0.5 h; dosed: 2-Methyltetrahydrofuran; 10 mg/kg; iv; Male; F344
Rat [2] = test: concentration in brain after dosing; conditions: 6 h; dosed: 2-Methyltetrahydrofuran; 100 mg/kg; oral; Female; Harlan Sprague Dawley
Rat [3] = test: concentration in plasma after dosing; conditions: 20 min; dosed: 2-Methyltetrahydrofuran; 100 mg/kg; oral; Female; Harlan Sprague Dawley
Rat [4] = test: concentration in brain after dosing; conditions: 2 h; dosed: 2-Methyltetrahydrofuran; 10 mg/kg; iv; Female; F344
Rat [5] = test: concentration in brain after dosing; conditions: 5 min; dosed: 2-Methyltetrahydrofuran; 10 mg/kg; iv; Male; F344
Rat [6] = test: concentration in brain after dosing; conditions: 20 min; dosed: 2-Methyltetrahydrofuran; 400 mg/kg; oral; Male; F344
Rat [7] = test: concentration in brain after dosing; conditions: 0.75 h; dosed: 2-Methyltetrahydrofuran; 30 mg/kg; oral; Male; F344
Rat [8] = test: concentration in plasma after dosing; conditions: 2 h; dosed: 2-Methyltetrahydrofuran; 30 mg/kg; oral; Male; F344
Rat [9] = test: concentration in brain after dosing; conditions: 5 min; dosed: 2-Methyltetrahydrofuran; 10 mg/kg; iv; Female; F344
Rat [10] = test: concentration in brain after dosing; conditions: 1.5 h; dosed: 2-Methyltetrahydrofuran; 10 mg/kg; iv; Male; F344
Rat [11] = test: concentration in brain after dosing; conditions: 4 h; dosed: 2-Methyltetrahydrofuran; 100 mg/kg; oral; Female; Harlan Sprague Dawley
Rat [12] = test: concentration in plasma after dosing; conditions: 3 h; dosed: 2-Methyltetrahydrofuran; 30 mg/kg; oral; Male; F344
Rat [13] = test: concentration in plasma after dosing; conditions: 10 min; dosed: 2-Methyltetrahydrofuran; 400 mg/kg; oral; Male; F344
Rat [14] = test: concentration in brain after dosing; conditions: 20 min; dosed: 2-Methyltetrahydrofuran; 10 mg/kg; oral; Male; F344
Rat [15] = test: concentration in brain after dosing; conditions: 1.5 h; dosed: 2-Methyltetrahydrofuran; 100 mg/kg; oral; Female; Harlan Sprague Dawley
Rat [16] = test: concentration in brain after dosing; conditions: 20 min; dosed: 2-Methyltetrahydrofuran; 100 mg/kg; oral; Female; Harlan Sprague Dawley
Rat [17] = test: concentration in brain after dosing; conditions: 20 min; dosed: 2-Methyltetrahydrofuran; 30 mg/kg; oral; Male; F344
Rat [18] = test: concentration in plasma after dosing; conditions: dosed: Fluorotelomer alcohol 8+2, 40 mg/kg, oral, Female, Harlan Sprague Dawley
Rat [19] = test: concentration in plasma after dosing; conditions: dosed: Formamide, 36 mg/kg, oral, Male, Harlan Sprague Dawley
Rat [20] = test: concentration in plasma after dosing; conditions: dosed: Formamide, 300 mg/kg, oral, Female, Harlan Sprague Dawley
Rat [21] = test: concentration in plasma after dosing; conditions: dosed: Formamide, 30 mg/kg, iv, Female, F344
Rat [22] = test: concentration in plasma after dosing; conditions: dosed: Formamide, 90 mg/kg, iv, Male, Harlan Sprague Dawley
Rat [23] = test: concentration in plasma after dosing; conditions: dosed: Formamide, 300 mg/kg, oral, Female, Harlan Sprague Dawley; remark: listed apart in the source
Rat [24] = test: concentration in plasma after dosing; conditions: dosed: Formamide, 90 mg/kg, iv, Male, Harlan Sprague Dawley; remark: listed apart in the source
Rat [25] = test: concentration in plasma after dosing; conditions: dosed: Formamide, 36 mg/kg, oral, Female, Harlan Sprague Dawley
Rat [26] = test: concentration in plasma after dosing; conditions: dosed: Formamide, 600 mg/kg, oral, Female, F344
Rat [27] = test: concentration in plasma after dosing; conditions: dosed: Formamide, 36 mg/kg, oral, Female, Harlan Sprague Dawley; remark: listed apart in the source
Rat [28] = test: concentration in plasma after dosing; conditions: 10 min; dosed: Pyridine; 50 mg/kg; oral; Female; F344
Rat [29] = test: concentration in plasma after dosing; conditions: 20 min; dosed: Pyridine; 200 mg/kg; oral; Female; F344
Rat [30] = test: concentration in plasma after dosing; conditions: 1 h; dosed: Pyridine; 50 mg/kg; oral; Male; Harlan Sprague Dawley
Rat [31] = test: concentration in plasma after dosing; conditions: 10 min; dosed: Pyridine; 200 mg/kg; oral; Female; Harlan Sprague Dawley
Rat [32] = test: concentration in plasma after dosing; conditions: dosed: Pyridine, 25 mg/kg, oral, Female, F344
Rat [33] = test: concentration in plasma after dosing; conditions: 2 min; dosed: Pyridine; 200 mg/kg; oral; Female; F344
Rat [34] = test: concentration in plasma after dosing; conditions: dosed: Pyridine, 25 mg/kg, oral, Female, F344; remark: listed apart in the source
Rat [35] = test: concentration in plasma after dosing; conditions: 1 h; dosed: Pyridine; 200 mg/kg; oral; Female; F344
Rat [36] = test: concentration in plasma after dosing; conditions: 2 min; dosed: Pyridine; 50 mg/kg; oral; Male; Harlan Sprague Dawley
Rat [37] = test: concentration in plasma after dosing; conditions: 1 h; dosed: Pyridine; 10 mg/kg; oral; Male; Harlan Sprague Dawley
Rat [38] = test: concentration in plasma after dosing; conditions: 5 h; dosed: Pyridine; 200 mg/kg; oral; Female; Harlan Sprague Dawley

CC1CCCO1 (stereo not given) [2-Methyltetrahydrofuran]
Conditions	concentration in brain [µg/g]	concentration in plasma [µg/mL]
Rat [1]	–	4.33
Rat [2]	1.79	–
Rat [3]	–	48.2
Rat [4]	0.0774	–
Rat [5]	6.02	–
Rat [6]	190	–
Rat [7]	11	–
Rat [8]	–	6.5
Rat [9]	7.15	–
Rat [10]	0.609	–
Rat [11]	16.9	–
Rat [12]	–	1.66
Rat [13]	–	186
Rat [14]	2.43	–
Rat [15]	72.6	–
Rat [16]	45.3	–
Rat [17]	14.7	–

OCCC(F)(F)C(F)(F)C(F)(F)C(F)(F)C(F)(F)C(F)(F)C(F)(F)C(F)(F)F [Fluorotelomer alcohol 8+2]
Rat [18]
Conditions	concentration in plasma [ng/mL]
0.75 h	1130
12 h	36.2

NC=O [Formamide]
Conditions	concentration in plasma [µg/mL]
Rat [19], 0.5 h	30.3
Rat [19], 48 h	6.6
Rat [20], 0.5 h	175
Rat [20], 48 h	63.4
Rat [21], 5 min	39.6
Rat [21], 36 h	3.8
Rat [22], 1 h	166
Rat [22], 3 h	154
Rat [23], 0.5 h	163
Rat [23], 48 h	19.2
Rat [24], 0.5 h	156
Rat [24], 48 h	9.8
Rat [25], 2 h	52.3
Rat [25], 5 min	11.3
Rat [26], 0.5 h	628
Rat [26], 48 h	138
Rat [27], 2 h	46.4
Rat [27], 5 min	9.4

c1ccncc1 [Pyridine]
Conditions	concentration in plasma [µg/mL]
Rat [28]	30.2
Rat [29]	102
Rat [30]	27.6
Rat [31]	94.2
Rat [33]	66
Rat [35]	90.3
Rat [36]	25
Rat [37]	2.91
Rat [38]	83.9

concentration in plasma [µg/mL]
Conditions	2 h	4 h	5 min	14 h
Rat [32]	17.3	–	–	10.3
Rat [34]	–	20.8	7.47	–
